# Measured values as given in paper PMC4336329 (PLoS ONE, 2015).
# Among all 310,000 compounds or so, about 14,000 (4.5%) showed an effect of 50% or more. The effect is printed as a negative number. This is one part of the list.
# Biological target: human ether-à-go-go-related gene (hERG) potassium channel (human, UniProt Q12809)
# Test: primary screen, population patch clamp on CHO cells stably expressing hERG
# 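Further: peak tail current of the secondary pulse compared with the same well before compound.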
# Chain of human ether-à-go-go-related gene (hERG) potassium channel (Q12809 whole entry, looked up): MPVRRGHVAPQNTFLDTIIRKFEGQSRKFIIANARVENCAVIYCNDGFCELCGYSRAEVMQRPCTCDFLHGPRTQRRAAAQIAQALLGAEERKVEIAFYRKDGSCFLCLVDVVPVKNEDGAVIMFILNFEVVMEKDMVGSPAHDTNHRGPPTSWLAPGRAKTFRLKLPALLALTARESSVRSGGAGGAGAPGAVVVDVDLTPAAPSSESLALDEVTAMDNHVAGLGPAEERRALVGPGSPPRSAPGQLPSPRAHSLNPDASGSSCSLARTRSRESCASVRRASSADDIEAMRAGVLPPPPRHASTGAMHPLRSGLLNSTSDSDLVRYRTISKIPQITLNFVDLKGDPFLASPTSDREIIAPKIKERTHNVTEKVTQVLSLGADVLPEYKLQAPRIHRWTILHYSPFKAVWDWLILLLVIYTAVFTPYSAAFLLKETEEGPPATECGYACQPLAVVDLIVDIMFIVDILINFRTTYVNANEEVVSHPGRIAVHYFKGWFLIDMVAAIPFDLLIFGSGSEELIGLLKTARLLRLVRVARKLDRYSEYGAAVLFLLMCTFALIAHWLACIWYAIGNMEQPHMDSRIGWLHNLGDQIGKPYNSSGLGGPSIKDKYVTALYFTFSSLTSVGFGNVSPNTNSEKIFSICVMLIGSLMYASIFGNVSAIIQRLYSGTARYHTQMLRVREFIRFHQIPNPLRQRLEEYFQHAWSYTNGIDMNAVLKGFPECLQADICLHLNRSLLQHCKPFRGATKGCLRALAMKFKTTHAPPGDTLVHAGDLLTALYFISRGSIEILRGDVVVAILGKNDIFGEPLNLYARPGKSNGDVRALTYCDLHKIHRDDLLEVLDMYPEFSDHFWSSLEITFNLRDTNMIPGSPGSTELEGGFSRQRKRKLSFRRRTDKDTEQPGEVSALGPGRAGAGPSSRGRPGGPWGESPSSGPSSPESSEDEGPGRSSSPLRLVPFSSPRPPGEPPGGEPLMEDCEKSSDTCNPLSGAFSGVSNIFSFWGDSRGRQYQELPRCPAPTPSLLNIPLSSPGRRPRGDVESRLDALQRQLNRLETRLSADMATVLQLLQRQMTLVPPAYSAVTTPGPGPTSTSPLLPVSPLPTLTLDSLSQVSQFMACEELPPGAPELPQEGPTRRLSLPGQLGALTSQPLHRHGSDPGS
row,Compound,"hERG current change (%, negative = inhibition) at 10uM"
1,Cc1ccc(S(=O)(=O)N(CC(=O)N2CCc3ccccc3C2)c2ccc(Cl)c(Cl)c2)cc1,-14.6%
2,COc1ccc(OC)c(-c2cc(C(=O)Nc3c(C)nn(Cc4ccccc4C)c3C)no2)c1,0.353%
3,COc1ccc(C(=O)Nc2ccc3c(c2)nc(CCNC(=O)c2ccco2)n3C)cc1,-5.16%
4,CC(C)CCNC(=O)c1csc2c1CCCCC2,2.04%
5,O=C(CN(C(=O)CNS(=O)(=O)c1ccc(F)cc1)c1ccccc1F)NCc1ccco1,-20%
6,COC(=O)CSc1nc2c(c(=O)n(C)c(=O)n2C)n1CCCc1ccccc1,-36.3%
7,Cc1ccccc1-n1nnnc1SCc1cc(=O)n2ccsc2n1,-25.6%
8,CCOC(=O)c1sc(Nc2ccccc2)nc1C,8.63%
9,CCOc1ccc(C(=O)NNC2CC(=O)N(Cc3ccc(Cl)cc3)C2=O)cc1OC (stereo not shown),-19.2%
10,CC(C)(C)[C@H]1C=C(C(=O)N2CCN(Cc3ccccc3)CC2)O[C@@H](OCc2ccc(CO)cc2)C1,-38.9%
11,COc1ccc(NC(=O)CC2CC3CCC2C3)cn1 (stereo not shown),15%
12,Cl.c1ccc(CCNCc2cccnc2)cc1,-0.175%
13,O=C(CSc1nnnn1-c1ccc2c(c1)OCCO2)N1CCc2ccccc21,-21.2%
14,CCOC(=O)C1=C(N)OC(CCl)=C(C#N)C1c1ccsc1 (stereo not shown),8.35%
15,Cc1ccc(CNC(=O)CN2C(=O)C3(OCCCO3)c3ccccc32)cc1,-5.97%
16,CN(C)S(=O)(=O)c1cccc(NC(=O)CCNC(=O)c2ccccc2Cl)c1,6.65%
17,COc1cc(/C=C2/SC(=Nc3ccc(O)cc3)NC2=O)ccc1O,-9.73%
18,O=C(OCC(=O)N1CCCC1=O)c1cccc([N+](=O)[O-])c1,19.9%
19,CCOC(=O)c1cnc(SC2CCc3ccccc3C2=O)nc1N (stereo not shown),-19.1%
20,COCc1cc(C)nc(Nc2ccc(C)cc2C)c1C#N,7.57%
21,COC(=O)CC1=C(C(=O)OC)[C@@H](c2ccccc2[N+](=O)[O-])C(C#N)=C(N)O1,3.86%
22,O=C(/C=C/c1ccccc1)N/C(=C\c1ccco1)C(=O)NCCO,-5.59%

row,Compound,"hERG current change (%, negative = inhibition) at 10uM"
1,CNc1nc(C)c(C(=O)c2ccc(Cl)cc2)s1,-7.58%
2,COc1ccc(-c2c(C#Cc3ccsc3)c3cc(-c4ccc(OC)c(F)c4)ccc3n2C)cc1,14.5%
3,O=C(CSc1cccc[n+]1[O-])Nc1ccc2c(c1)OCCO2,17.2%
4,O=C(N/N=C/c1cc([N+](=O)[O-])ccc1O)c1cccc(N2CCCC2=O)c1,3.22%
5,COc1cc(/C=N/N2CCN(Cc3ccc(C)cc3)CC2)cc(OC)c1O,-43%
6,CCOc1ccc(S(=O)(=O)n2nc(C)c(S(=O)(=O)N3CCOCC3)c2C)cc1,15.2%
7,CC(C)(C)NC(=S)NCc1cccnc1,-1.7%
8,COc1ccc(-c2oc(NC(=O)CCl)c(C#N)c2-c2ccc(OC)cc2)cc1,4.25%
9,O=C(Nc1nnc(C2CC2)s1)c1n[nH]c(=O)c2ccccc12,-3.46%
10,CCN1CCN(c2ccc(S(=O)(=O)N(CC)CC)cc2[N+](=O)[O-])CC1,-12.1%
11,COCc1ccc([C@@H]2C[C@H]3CN(Cc4ccccc4C)C(=O)[C@]34CCCN24)o1,-11.2%
12,CCc1ccc(C(=O)NNC(=O)Cn2c(=O)cnc3ccccc32)cc1,-3.44%
13,COc1ccc(CCNC(=O)C2CCCN(S(=O)(=O)N3CCCCCC3)C2)cc1OC (stereo not shown),8.33%
14,CCn1c(=O)c(C(=O)NNS(=O)(=O)c2ccc(NC(=O)OC)cc2)c(O)c2ccccc21,-56.3%
15,CNC(=O)Cn1c(=O)n(C)c2ccccc21,-1.9%
16,C=CCN1C(=O)CC(C(=O)NC)SC1=Nc1ccc(C(=O)OCC)cc1 (stereo not shown),11%
17,Cc1ccc(C(C)C)c(OCC(O)CN(C)Cc2ccccc2)c1.Cl (stereo not shown),-33.3%
18,C=CCN(Cc1ccco1)S(=O)(=O)c1ccc(Cl)cc1,4.62%
19,COc1cccc(C(=O)Nc2ccc(N3CCN(Cc4ccccc4)CC3)cc2)c1,-5.56%
20,COc1ccc(NC(=O)C2CCC(N3C(=O)C4CCCCC4C3=O)CC2)cc1 (stereo not shown),11%
21,CCN(CC)C(=O)CSC1c2ccccc2C(=O)N1c1ccccc1 (stereo not shown),-11.8%
22,O=C(Nc1ccc2c(c1)OCO2)C1CCCCN1S(=O)(=O)c1ccccc1 (stereo not shown),-10.9%

row,Compound,"hERG current change (%, negative = inhibition) at 10uM"
1,CCOC(=O)N1CCC(N2C(=O)c3ccccc3C2Nc2ccccc2C)CC1 (stereo not shown),-46.5%
2,CC(C)(C)c1nc(N)nc(=O)[nH]1,-1.18%
3,CC(=N\NC(=O)c1ccc([N+](=O)[O-])cc1)/C(=N/O)C(=O)Nc1ccccc1,-14.6%
4,Cc1onc(-c2ccccc2Cl)c1C(=O)N(Cc1ccc(N(C)C)cc1)C(C)C,10.8%
5,CC(C)Oc1ccc(C(=O)Nc2ccc(N3CCN(C(=O)c4ccco4)CC3)cc2)cc1,4.11%
6,Cc1ccc(C(C(=O)NCc2ccc(F)cc2)N(Cc2ccco2)C(=O)c2snc(C(N)=O)c2N)o1 (stereo not shown),4.15%
7,COc1ccc(Cl)cc1NC(=O)CSc1nc2ccsc2c(=O)n1CC1CCC(C(=O)O)CC1 (stereo not shown),-8.91%
8,O=C(CSc1ccc(-c2cccs2)nn1)Nc1ccccc1F,-32.2%
9,CCCNC(=O)NC(=O)CN1CCCC1c1ccc2c(c1)OCCO2 (stereo not shown),-9.35%
10,COc1ccc2c(c1)C(=O)C(=O)N2,19.5%
11,CCNc1cc(N2CCOCC2)nc(SC)n1,9.95%
12,COc1ccc(S(=O)(=O)N2CCOCC2)cc1NC(=O)Cc1coc2cc(C)c(C)cc12,18.8%
13,c1cncc(CSc2ccc(-c3cccnc3)nn2)c1,9.04%
14,COc1ccc(C(=O)OCN2C(=O)c3ccccc3C2=O)cc1,20.5%
15,CCOC(=O)c1c(C)[nH]c(C(=O)COC(=O)COc2ccccc2C)c1C,-0.0618%
16,CC/C(=N\Nc1nncc2ccccc12)c1ccc(F)cc1,3.91%
17,CCOC(=O)CSc1ncnc2c(C(=O)OCC)c3n(c12)CCC3,-62.6%
18,CC(=O)c1cccc(OCc2cc(C(=O)N3CCSCC3)no2)c1,5.45%
19,O=C(O)c1ccc(-c2cccc(Cl)c2)o1,14.4%
20,Cc1cccc(C(=O)N2CCN(S(=O)(=O)N3CCCCC3)CC2)c1,-16%
21,CN1CCN(C2=NCCO2)CC1,8.19%
22,O=C(C1=C[C@H](c2ccc3c(c2)OCO3)C[C@H](OCCCCO)O1)N1CCN(Cc2ccc3c(c2)OCO3)CC1,-69.1%

row,Compound,"hERG current change (%, negative = inhibition) at 10uM"
1,CCCCN(CCCC)c1nc2ccccc2nc1NS(=O)(=O)c1ccc(NC(C)=O)cc1,8.68%
2,CN(C)/C=C/C(=O)c1ccc(Cl)cc1,-1.7%
3,COc1ccc(S(=O)(=O)N2CCN(C(=O)[C@H](Cc3ccccc3)NC(=O)c3ccco3)CC2)cc1,-28.6%
4,O=C(CSCc1ccc(Cl)cc1Cl)Nc1nccs1,-34.6%
5,COc1nnc(-c2ccc(C)c(S(=O)(=O)NC(C)(C)CO)c2)c2ccccc12,-15.9%
6,CC(=O)c1ccc(OCC(=O)Nc2c(C)nn(-c3ccccc3)c2C)cc1,-2.73%
7,CCOc1cc2nc(-c3ccc(OC)c(OC)c3)nc(N3CC(C)OC(C)C3)c2cc1OC (stereo not shown),13.5%
8,CCOC(=O)C1(C)NC(c2ccccc2F)C2C(=O)N(CC)C(=O)C21 (stereo not shown),20.6%
9,Cc1ccc(SCC(=O)c2c(C)nc3cc(C)ccn23)cc1,34.5%
10,COc1ccc([N+](=O)[O-])cc1NC(C)C,13%
11,O=C(CSc1nnc2ccccn12)NC(=O)NC1CCCCC1,4.05%
12,CCc1noc(C)c1C(=O)N1CCCC(N2CCN(c3ccccc3F)CC2)C1 (stereo not shown),3.48%
13,c1ccc(-n2cnc3cc(NCc4ccncc4)ccc32)cc1,-42%
14,Cc1ccsc1/C=c1\sc2ncnn2c1=O,16.9%
15,CCOc1ccc(C(=O)COC(=O)c2cc(=O)[nH]c3ccccc23)cc1,5.75%
16,CN(C)CC/C=C1/c2ccccc2Sc2ccc(Cl)cc21,-8.11%
17,CCc1ccc2c(c1)C1(NN=C(c3cccc4ccccc34)S1)C(=O)N2 (stereo not shown),19.2%
18,O=C(O)c1ccccc1NC(c1ccccc1)c1ccc(Cl)cc1 (stereo not shown),19.8%
19,COc1ccc(C2CC(c3cccs3)=NN2C(=O)CSc2nc3c(cnn3-c3ccccc3)c(=O)[nH]2)cc1 (stereo not shown),7.62%
20,COCCNS(=O)(=O)c1cccc2cccnc12,11.6%
21,Cc1ccc(NC(=O)CSc2nnc(-c3cccs3)n2Cc2ccco2)cc1,-61.6%
22,CSCCC(NS(=O)(=O)c1ccc2c(c1)oc(=O)n2C)C(=O)NCc1ccccc1 (stereo not shown),4.1%
